Out of some 45,000 compounds screened, about 200 (0.44%) were called active. Not shown: some 7% with an inconclusive outcome. Calls follow the shape of the dose curve; as a rule, active = well fitted activation curve with a large enough effect; inconclusive = small, poorly fitted or top-dose-only effect; inactive = no such curve, though single readings can be large or run the other way. The list shows a part of the results.
Experiment: qHTS of TDP-43 Inhibitors: NCGC Sytravon Library Screen; also: 0% is about no effect; nearly all actives have a fitted effect of over 55% in size
Conditions: yeast TDP-43 toxicity rescue, BacTiter-Glo growth, 24 h; series mostly up to 46.1 µM; growth rescue (activation): at the top concentration
Summary of the method: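 TDP-43-expressing yeast, pregrown in raffinose, seeded at OD600 0.02 in galactose medium with compound for 24 hr at 30 deg C. Growth read by BacTiter-Glo luminescence, so rescue of toxicity appears as activation.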

Structure (SMILES)	growth rescue (activation)	Potency
CCCC(=O)N=C1SC2CS(=O)(=O)CC2N1c1ccc(-c2nc3ccc(C)cc3s2)cc1 (configuration not stated)	inactive: 15.2%	
O=C(COc1ccc(S(=O)(=O)N2CCOCC2)cc1)NC1CC1	inactive: -25.5%	
CCOC(=O)C1(Cc2ccc(OC)cc2)CCN(C(=O)CCc2cccnc2)CC1	inactive: 13.1%	
CCOC(=O)c1cccc(OC(=O)CCNC(=O)c2ccc(Cl)cc2)c1	inactive: 17.7%	
COc1ccc(C2=NN(C(=O)c3cccs3)C(O)(C(F)(F)F)C2)cc1 (configuration not stated)	inactive: 15.8%	
Cc1cccc(NC(=O)CN2C(=O)CNC2=O)c1	inactive: 17.5%	
COc1ccc(C(=O)C2CCCN(C(=O)c3noc4c3CCCC4)C2)cc1F (configuration not stated)	inactive: 3.09%	
Cc1ccc(S(=O)(=O)N2CCN(CC(=O)N/N=C\C(Cl)=C\c3ccccc3)CC2)cc1	inactive: 2.92%	
CSC1=N/C(=C\C=C\c2cccs2)C(=O)S1	inactive: -93.4%	
O=C(OCc1c(F)cccc1Cl)c1cnc2ccccc2n1	inactive: -9.99%	
CCn1cc(CN2CCCC(C(=O)c3ccc(-c4ccccc4)c(F)c3)C2)cn1 (configuration not stated)	inactive: 26.2%	
CN(C)CCNC(=O)c1ccc2nc([C@@H]3O[C@H](CO)[C@H](O)[C@H](O)[C@H]3O)[nH]c2c1	inactive: 0.714%	
C=CCNC(=O)C1CCN(S(=O)(=O)c2ccc(Br)cc2)CC1	inactive: -6.46%	
Cc1nn(C(=O)c2nn(C)cc2Cl)c(C)c1Br	inactive: -5.5%	
COc1ccccc1C(=O)Nc1nc2ccccc2[nH]1	inactive: -87.3%	
CC1(C(=O)NS(=O)(=O)C2CC2)CCN(C(=O)COc2ccc(Cl)cc2Cl)C1 (configuration not stated)	inactive: 3.13%	
C[C@H](NC(=O)c1cc2cc(Cl)ccc2n1C)C(=O)N1CCC(C(=O)O)CC1	inactive: -4.39%	
COc1ccc(NC(=O)c2ccc(S(=O)(=O)N(C)C)cc2)cc1	inactive: 13.3%	
Cc1cccc(N(C(=O)c2csnn2)C(C(=O)NCc2ccccc2)c2ccncc2)c1 (configuration not stated)	inactive: -19.8%	
CC1CCCN(S(=O)(=O)c2ccc(NC(=O)CNC3CCCC3)cc2)C1 (configuration not stated)	inactive: -12.8%	
COc1ccc(CCC(=O)Nc2nccs2)cc1OC	inactive: -12%	
Cc1ccccc1NC(=O)c1cccc(N2C(=O)C3CCC(C)CC3C2=O)c1 (configuration not stated)	inactive: 13.6%	

Structure (SMILES)	growth rescue (activation)	Potency
COc1ccc(CNC(=O)C/C(C)=N/NC(=O)c2ccccc2OC)cc1	inactive: 7.68%	
Cc1ccc(/C=C2/C(=O)N(c3ccccc3)C(=S)N2C)o1	inactive: -3.68%	
CCOC(=O)/C(C#N)=C/c1c(N2CCN(C)CC2)nc2ccccn2c1=O	inactive: 3.65%	
COc1cc(C(=O)NC2CC(C)(C)Cc3c2cnn3-c2ccccc2)cc(OC)c1OC (configuration not stated)	inactive: -12.9%	
CCOC(=O)Cc1csc(SCC(=O)NC2CCCC2)n1	inactive: 12.9%	
COc1ccc(N(CC(=O)NCc2ccc(C)cc2)S(=O)(=O)c2ccccc2[N+](=O)[O-])c(OC)c1	inactive: 6.27%	
Nc1nnc(CC(=O)NCc2ccccc2)s1	inactive: -5.46%	
COc1cc(F)ccc1-c1cc(C(=O)Nc2ccc(C)c(NS(C)(=O)=O)c2)[nH]n1	inactive: -4.85%	
O=c1c(C(c2ccc(Br)cc2)c2c(O)nc3n(c2=O)CCS3)c(O)nc2n1CCS2	inactive: 4.52%	
CC(C)c1nnc(SCC(=O)NC2CCCC2)n1C	inactive: 5.56%	
Cc1sc2nc(CN3CCCC3)nc(N3CCN(C(=O)c4ccco4)CC3)c2c1C	inactive: 15.4%	
OCCN1CCN(CC#CCn2c3ccccc3c3ccccc32)CC1	inactive: -27.4%	
O=C1COc2ccc(S(=O)(=O)NCCc3ccccc3)cc2N1	inactive: 3.8%	
COc1ccc(NC(=S)Nc2ccccc2C(F)(F)F)cc1	inactive: 14.3%	
Cc1ccc(-n2cccn2)c(CN2CCCC(CNC(=O)c3ccc(F)cc3)C2)c1 (configuration not stated)	inactive: 17.4%	
COCCNC(=O)CN1CCC(NC(=O)c2ccco2)CC1	inactive: 2.64%	
Cc1cccc(CC(C)NC(=O)CCc2nnc(CCCCc3ccccc3)o2)n1 (configuration not stated)	inactive: 7.79%	
C/C(N)=C(/C#N)C(=O)CSc1cc(C)c2ccccc2n1	inactive: 12.3%	
CC1CCC(=NNC(=O)Cc2cccn2C)CC1 (configuration not stated)	inactive: 11.5%	
CC1CCc2c(sc(NC(=O)c3ccco3)c2C(=O)O)C1 (configuration not stated)	inactive: -92.9%	
CCOc1ccc(NC(=O)C2CCCN(c3nnc(-n4c(C)ccc4C)s3)C2)cc1 (configuration not stated)	inactive: 4.59%	
COCCn1cnnc1SCC(=O)Nc1cccc(S(=O)(=O)N(C)c2ccccc2)c1	inactive: 7.79%	

Structure (SMILES)	growth rescue (activation)	Potency
Nc1nnc(CCCCCc2nnc(N)s2)s1	inactive: -13.7%	
COC(=O)c1sccc1NC(=O)Nc1cc(C)ccc1C	inactive: 9.21%	
C=CCN=C1NN=C(c2ccc3c(c2)OCCO3)CS1	inactive: 7.06%	
CC1CN(S(=O)(=O)c2cc(C(=O)NC(C)c3cccnc3)ccc2Cl)CC(C)O1 (configuration not stated)	inactive: 12.1%	
OC(c1ccc(F)c(F)c1)c1nc(-c2ccncc2)cs1 (configuration not stated)	inactive: 11%	
COC(=O)Cc1csc(Nc2ccc(Cl)cc2)n1	inactive: -11.9%	
COc1cccc(N(CC(=O)NCCSCc2ccco2)S(=O)(=O)c2ccccc2)c1	inactive: -18%	
COc1ccc(C(=O)NC(=S)Nc2nc(C)cc(C)n2)cc1Br	inactive: 6.48%	
COc1ccc(NC(=O)C2CC(c3ccc(Cl)cc3)=NO2)cc1 (configuration not stated)	inactive: -3.83%	
O=C(CCc1nnc(CCCCc2ccccc2)o1)NCCN1CCCCC1=O	inactive: 8.95%	
Cc1cccn2c(=O)c(/C=C(\C#N)C(=O)NC3CCS(=O)(=O)C3)c(Oc3ccc(F)cc3)nc12 (configuration not stated)	inactive: -0.677%	
COc1cc(NC(=O)CN2CCN(c3ccccc3)CC2)c(C)cc1[N+](=O)[O-]	inactive: 17.1%	
CC(C)CCn1nc(C(=O)Nc2nc3c(s2)CCCC3)c2ccccc2c1=O	inactive: -5.75%	
Cc1cccc(C)c1OCc1cc(C(=O)N2CCN(C3CCCC3)CC2)no1	inactive: 10.9%	
O=S(=O)(Nc1cc(S(=O)(=O)N2CCOCC2)ccc1N1CCCC1)c1cccs1	inactive: 8.46%	
Nc1nc(Nc2cccc(Cl)c2)nc(NCCO)c1[N+](=O)[O-]	inactive: -10.9%	
COc1ccc(C2=NN(C(=O)CSc3nnc(-c4ccccc4F)o3)C(c3ccco3)C2)cc1 (configuration not stated)	inactive: 17.8%	
CN(C)c1nc(Nn2cnnc2)nc(N(C)C)n1	inactive: 27.7%	
O=C(NCC(=O)N(c1cccnc1)C(C(=O)NC1CCCC1)c1cccs1)c1ccco1 (configuration not stated)	inactive: 5.04%	
CCc1nc2ccc(C(=O)NCCOc3ccc(OC)cc3)cn2c1N(C)C(=O)C1CCCCC1	inactive: 10.7%	
CC(=O)c1ccc(N(CC(=O)NCc2ccc3c(c2)OCO3)C(=O)c2csnn2)cc1	inactive: -13.3%	
COc1cc2c(cc1NC(=O)CN1CCN(S(=O)(=O)c3ccc(C)cc3)CC1)oc1ccccc12	inactive: 19.2%	

Structure (SMILES)	growth rescue (activation)	Potency
CSc1ncc(C(=O)Nc2ccc(Cl)cc2)c(C)n1	inactive: 13.2%	
Cc1ccc2nsnc2c1NC(=O)Cc1ccc(Cl)cc1	inactive: 13.6%	
Cc1ccc(-c2nc3c(c(=O)c4ccccc4n3C)c(=O)n2-c2ccc(F)cc2)cc1	inactive: -9.21%	
Cc1ccc(/C=N/Nc2nc(N3CCOCC3)nc(N3CCOCC3)n2)o1	inactive: 0.0022%	
COc1ccccc1NC(=O)CCS(=O)(=O)c1ccccc1	inactive: -0.687%	
Cc1csc(N(C(=O)c2cccc(S(=O)(=O)N3CCCC3)c2)c2ccccc2)n1	inactive: -0.354%	
O=S(=O)(NCC1COc2ccccc2O1)c1ccc2ccccc2c1 (configuration not stated)	inactive: 13.6%	
CCCCCn1c(=S)[nH]c2ncccc2c1=O	inactive: 24.2%	
Nn1c(SCC(=O)NC2CCCCCC2)nnc1C(F)(F)F	inactive: 10.9%	
Cn1nc([N+](=O)[O-])nc1Sc1nnnn1-c1ccc(C(=O)O)cc1	inactive: -6.8%	
CC(=O)Oc1ccc(-c2csc(Nc3ccc(S(N)(=O)=O)cc3)n2)cc1	inactive: 10.8%	
Cn1c(SCC(=O)N2CCCC2=O)nc2ccccc2c1=O	inactive: 17.4%	
CC(=O)N1CCN(C(=S)NC(=O)c2ccc(F)cc2)CC1	inactive: -24.6%	
Cc1cnc(C(=O)OCC(=O)N(Cc2ccccc2)C(C)C)cn1	inactive: 19%	
O=C(c1ccc(Cn2c(=S)[nH]c3ccccc3c2=O)cc1)N1CCN(c2ccccn2)CC1	inactive: -8.07%	
Cc1ccc(NC(=O)COC(=O)c2ccc(NC(=O)CC#N)cc2)cc1S(=O)(=O)N1CCOCC1	inactive: -17.4%	
COC(=O)CCSc1cc(NCCOC(C)=O)c([N+](=O)[O-])c2nonc12	inactive: 7.88%	
O=C(CCNS(=O)(=O)c1ccc(Cl)cc1)N1CCN(c2ccccn2)CC1	inactive: 1.77%	
CC(C)C(=O)N1CCC1(C)C(=O)Nc1nc2ccccc2[nH]1 (configuration not stated)	inactive: 7.66%	
CCOc1ccccc1NC(=O)NCc1ccc(F)cc1	inactive: -0.846%	
CCNC(=O)C1(C)CCN(Cc2ccc(OC(F)(F)F)cc2)C1 (configuration not stated)	inactive: 6.04%	
C/C(=N\NC(=O)c1nnn(-c2nonc2N)c1C)c1ccc(-c2ccccc2)cc1	inactive: 1.42%	

Structure (SMILES)	growth rescue (activation)	Potency
COc1ccc(C(C(=O)NC(C)(C)C)N(C(=O)CCC(=O)Nc2cc(C)on2)c2cccc(F)c2)cc1 (configuration not stated)	inactive: 4.62%	
COc1ccc(CC(=O)NNc2ncnc3c2cnn3C)cc1	inactive: 7%	
CC1(C(=O)Nc2ccc3c(c2)OCO3)CCN1C(=O)CCc1cccs1 (configuration not stated)	inactive: 22.9%	
CCn1c(COc2ccccc2)nnc1SCC(=O)NCc1ccco1	inactive: -28.7%	
Cc1ccc(-c2cn(-c3ccccc3)c(=S)[nH]2)cc1C	inactive: 11.6%	
N#Cc1cccc(NC(=O)CN2CCCCCC2)c1	inactive: 11.8%	
O=C(COC(=O)c1ccccc1)Nc1cccc(S(=O)(=O)NC2=NCCCCC2)c1	inactive: 1.05%	
COc1ccc(NC(=O)NC2(C)CCS(=O)(=O)C2)cc1 (configuration not stated)	inactive: -7.91%	
COc1ccc(CC(=O)Nc2cccc(-c3nnc(-c4ccco4)o3)c2)cc1	inactive: 19.6%	
C=CCNc1ncnc2c1ncn2[C@H]1CN(C2CCCC2)C[C@@H](CO)O1	inactive: 9.38%	
CCC(=O)Nc1cc2nn(-c3ccc(C)cc3)nc2cc1C		inactive
CC(C)N(C(C)C)S(=O)(=O)c1ccc(N2CCc3ccccc3C2)nc1	inactive: 37.7%	
COc1ccc(Cl)cc1NC(=O)CN(C)Cc1cccs1	inactive: 12.3%	
Cc1ccc(O)c(NC(=O)c2cc(-c3cccs3)on2)c1	inactive: 6.13%	
COC(=O)c1ccc(CNC(=O)CCC(=O)N2CCOCC2)cc1	inactive: -17.8%	
COc1ccc(S(=O)(=O)N2CCOCC2)cc1NC(=O)CSc1nnc2n1CCCCC2	inactive: 30.7%	
CCOC(=O)c1c(N2C(=O)Nc3ccccc3N2O)n[nH]c1-c1cccc(Cl)c1	inactive: 14.2%	
COc1ccccc1NC(=O)Cn1c([N+](=O)[O-])cnc1C	inactive: 3.15%	
CCOC(=O)c1c(NC2=NS(=O)(=O)c3ccccc32)sc2c1CCC(C)C2 (configuration not stated)	inactive: -3.09%	

— PubChem BioAssay AID1347073 (National Center for Advancing Translational Sciences (NCATS), 2019)
